Laboratory results from the supplement of paper PMC12632987.
Whole data set: some 4,500 sequences, median “median log2 fold change of GCK-ALFA target abundance (FLAG IP / Myc IP barcode read proportion)” near 0.078, cut for the lowest 2% near -0.6. The list shows a part of the results.

B1: GBRAP_14_3815 (protein)
chain: KEELIKEINKILEELRDELVNLLGLPEEEVTKLVEEAKKKIEEAILTKENPEEEIEKIMEELRKEVAKLAAKLGADVAAAAEALVTDAEYEILELIEEKK
B2: GBRAP_166_4910 (protein)
chain: SLEELVERAKARIRALVAAMPAADAAGRLELAIEIAELLEELREAGASEEQLDEAWRALAEALKEAGLDVEREVARVAAAAGFDEEEVERVDAIVAEVLA
B3: GBRAP_184_5098 (protein)
chain: KVLVAKIKAKTLEEAKKKAYEVLDKAAKEGANLIILFELENISEEEIAELVEEVGKRAKELGIPNVTLGIENDLSEETIDKLIEIADKLGIKLVVAIPEE
B4: GBRAP_52_5944 (protein)
chain: SEARVRALAEAFVAAAAAGDTEKARAILLQAAKELNDEEWRLFAAALAELLATADLETIERVLEIVLESADELEALGVSEEQIGDLEAAIARAGAAALAA
B5: GBRAP_52_5986 (protein)
chain: MKEEAKKIAEELVKLMLEGKEEEAEKLMKEIAENKSQEFILMVMEELAKMAKTATPEEVDAIVDTALMLGDIALEAGFDEAEIDDAEARVAAAAVENLKK
B6: GBRAP_45_5803 (protein)
chain: MSPLEQELAAALAALDRAIALVEANEALPAERRAAYIAELEALRARLKAHPRDAAALDELAAELEALLKRLLADPEATAETIEAVLDALNHVLDARELLK
B7: GBRAP_35_5559 (protein)
chain: EFDEEVVEMMTNTAEDALLAVEDVPVDTLIAITTSIAKAALKILKEEKENKEGMGKLGKAMLELLDAAIKKAKEEGAPQEKIEELEKLRKEIEEALKEIE
B8: GBRAP_160_4246 (protein)
chain: KERLERIREELEDEAEVLLELLLEVPASQRAAYARAAAGNMVRIVEEEPEMSDETVEEVDELADAMAARLVAAADASPEELRALLREGVEEIVEAVEEGL
B9: GBRAP_137_3661 (protein)
chain: MKIEVNAKLEGDFGEVEIKAENKETAEEAEDIAIDVARETGVAAAISLDKEEKTVYVDLIGTPEQLRAFLDKLLERLSKKYDVDATIEEDGKTTKKKLKK
B10: GBRAP_184_5340 (protein)
chain: KTLEVHIPNSSLEEIIKEFEKAAKKAAAEGANLLVTVDAEGFSAEEVVELLEKLGEIAKKEGLKDVTVDIDQELTEEEADKVIEVADKYGIRLTVPLKDE
B11: GBRAP_39_5636 (protein)
chain: SEAEEAEETYSYLEALGAKLLYDSGLSLDELLARERAAALAAFADDPELQALLAELEALAAASDELDRLALVGAMHRATEGAPREEVRRDLELLIARLKA
B12: GBRAP_184_5299 (protein)
chain: KVEHVFIEADTAEEAIEQIEKLAEEAKKKGVKLSLYLSLKNVSVEGFKKIAEHLKELKEEGIIEDAVVHIEDDLSEEERDEFIKIADEAGVKLVLALSDE
B13: GBRAP_128_3226 (protein)
chain: STEELEERVRELLERIKEADEEEARRLARELARLIAEASVEEAEAMAEVVEELAPELSEEQLEILIDAFEEEARATDSEVALVLRDIAIIFGEELLEKEE
B14: GBRAP_117_2573 (protein)
chain: EELKKKAKEEVDKFVEDLAARLKEMKTLSPEEQAAALAQMQEETYKLLKKLIKELGKDETLELFDEAISKLDAEDYFAISTIVEDAFNRIEEEEEKEKAA
B15: GBRAP_160_4386 (protein)
chain: KEELEKLAKEIEELREEFEEEAKDLDAAETRTLAIGVLSEVAALVFENEAVSEETQDKIMEIIDEAIARLRANADAPPEEIVAITTEAFDKIIELVKEEK
B16: GBRAP_11_2854 (protein)
chain: KKEKLEEIAKLAEEAIKLLEKLKEEGVDNEELQKEIEEKLKKLLELVKKYTDEADVKLAEDALESFEKSKEDPENKQEYIDEAIAFLRVLLGNILLEIDE
B17: GBRAP_160_4358 (protein)
chain: SETAEKLIKEIKEATEEVISSIDKESLEEVAVIADGLFGEIAMEAVEDESMSDEVVDIIVEARDKIRELLKEGKDASPEEIKKGIKKITEEAIKKIKEAA
B18: GBRAP_80_6789 (protein)
chain: AEERLEAAVAEIEKVDPELAKLLREIIEIAREMGVSEETLAELAEAALKLAKVDVELAKEELEELKKELEELKEEGDSENAEATLRVYAGQMLLKVEELE
B19: GBRAP_35_5594 (protein)
chain: EDTELLFESTLDYAEALIEGIPELPVETVVALAKNLVKLAKELVKELKGNLEKLKKLAEALKKVIEAIKKHYPDNPEAQKAVEELEKALKEVEKAIKEAE

molecular target: GABARAP, O95166; assay: median log2 fold change of GCK-ALFA target abundance (FLAG IP / Myc IP barcode read proportion) (log2 ratio); each designed protein is fused to an ALFA-tag nanobody in HEK293 cells to bring the named protein to FLAG-tagged glucokinase (GCK); Myc marks an untargeted standard; higher = target protein stabilised (more abundant); conditions: target protein: 3xFLAG-MCP-GCK-ALFA reporter; HEK293 landing pad (RPLP)
Procedure, shortened: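 Sequencing of reverse-transcribed, amplified circular RNA barcodes from anti-FLAG and anti-Myc immunoprecipitates provided the readout for an ALFA-nanobody-fused binder library recombined into HEK293 landing-pad cells. Those cells were induced with 2 μg mL^−1 doxycycline, transfected with a plasmid expressing a FLAG-tagged target and a Myc-tagged standard, and lysed after 48 h. Target abundance is the per-binder median log2 ratio of FLAG to Myc barcode read proportions. Only barcodes at a proportion of ≥10^−7 in both replicates and binders with ≥3 barcodes per replicate were kept, with a 10^−6 pseudocount added before the two replicates were pooled.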

GABARAP, O95166, sequence (O95166 whole entry, the tested form may be a part): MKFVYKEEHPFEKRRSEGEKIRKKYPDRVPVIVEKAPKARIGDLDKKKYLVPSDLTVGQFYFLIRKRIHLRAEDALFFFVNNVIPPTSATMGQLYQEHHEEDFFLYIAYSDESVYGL

Binder	median log2 fold change
B1	0.113
B2	0.271
B3	-0.0804
B4	-0.227
B5	-0.152
B6	0.166
B7	-0.034
B8	-0.171
B9	-0.0391
B10	0.166
B11	0.198
B12	-0.0173
B13	-0.17
B14	0.24
B15	0.077
B16	0.322
B17	0.411
B18	0.0716
B19	0.389
